The values that follow come from the supplement of paper PMC11417369.

± gives the standard deviation of the averaged measurements. The list shows a part of the results.

This assay relates to PfAP2-I AP2 domain 3 (GST-tagged). Nature of the assay: gcPBM binding intensity (ln(normalized median fluorescence intensity)); higher = stronger DNA binding. The method in brief:
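Binding of GST-tagged P. falciparum DNA-binding domains, expressed in E. coli and used at about 25 μg on average, was carried out for 1 h in 1× PBS containing 1% milk, 0.2 mg/ml BSA, 0.5% salmon testes DNA and 0.03% Triton X-100. The target was an Agilent 4 × 180k array of primer-extended double-stranded 36-bp intergenic genomic probes plus negative controls, read with Alexa488 anti-GST antibody at 488 nm. Binding intensity is the highest Masliner-normalised natural-log median intensity across replicate spots of either probe orientation.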
As for “CAATCTTTTACGAATACACACACATAAAGAAAAAAA [CACACA_site8367]”, the “gcPBM binding intensity (ln)” value was determined as 7.91 ± 0.61.

In the case of “AATTTTTTATATGTCACACATTTGTTATTATTATTA [CACACA_site4197]”, the “gcPBM binding intensity (ln)” value amounted to 7.9 ± 0.62.

Regarding “TTAAATAAATAAAAATGTACATGCATATATAAATAT [XGTACX_site8908]”, the “gcPBM binding intensity (ln)” value came to 7.88 ± 0.81.

As for “AAAAAGAATAAATAAATATAAATAAATAAATATATA [GTGCAC_negctrl_site336]”, the “gcPBM binding intensity (ln)” value was determined as 7.2 ± 0.28.

As for “ACATATAGAAGTATCTATAAACAGTGATAGCATTTT [CACACA_negctrl_site1122]”, the “gcPBM binding intensity (ln)” value is 7.54 ± 0.55.

As to “AAAAAAAAATGTCATGGTACACAATTTTTTCTTTTT [XGTACX_site4505]”, the “gcPBM binding intensity (ln)” value turned out to be 7.4 ± 0.55.

“TAAAGTAAAACAAGGTAAGGTTTTTCTTTTTCTTTT [CACACA_negctrl_site1271]”: the “gcPBM binding intensity (ln)” value was 7.26 ± 0.57.

Turning to AATAAATTATGAACGGTGCAGGAAAAATTGTAACAT, the “gcPBM binding intensity (ln)” value is 9.67 ± 0.47.

“TAGATTATTTTATTTAGTACATAAAAAAGTAAGACC [XGTACX_site7889]”: the “gcPBM binding intensity (ln)” value was 8.11 ± 0.4.

As to “TGAAGTGCAAAATACTGTACGTAATGTGCTTGTTAC [XGTACX_site4512]”, the “gcPBM binding intensity (ln)” value worked out at 10.1 ± 0.38.

As to “AAACATAAGGGACACACACACATATATATATATATA [CACACA_site5920]”, the “gcPBM binding intensity (ln)” value worked out at 9.2 ± 0.28.

In the case of “CAAAAAAACAAACACACACACACACCGATATATATA [CACACA_site9218]”, the “gcPBM binding intensity (ln)” value was 8.21 ± 0.56.

As for “ATCACTTGAGAATAATTACATTAATATATATTTATG [TGCATGCA_negctrl_site581]”, the “gcPBM binding intensity (ln)” value came out at 7.33 ± 0.52.

Turning to “CTTTTTAATTAATACACACACACACCCATATATATA [CACACA_site2292]”, the “gcPBM binding intensity (ln)” value turned out to be 8.45 ± 0.54.

Take “GGGAAAGAACCATATACATGCATATTTACCGTTAAA [TGCATGCA_site519]”: the “gcPBM binding intensity (ln)” value was 7.81 ± 0.68.

Take “CATATACATACACATACACACATACAGACATACACA [CACACA_site6919]”: the “gcPBM binding intensity (ln)” value came to 8.12 ± 0.3.

Turning to TGAAATTTTATTAATGTGCACATATATTTATTGTTC, the “gcPBM binding intensity (ln)” value came to 9.77 ± 0.26.

Consider “GTAAAAAAAAAAAAATGTACACATATATATAATATA [XGTACX_site159]”, for which the “gcPBM binding intensity (ln)” value stood at 7.67 ± 0.35.

As for “TTTTTTTTTTTTAATACACACATATATATATTTATT [CACACA_site3994]”, the “gcPBM binding intensity (ln)” value worked out at 8.21 ± 0.64.

With “AACATAATTAAAAATTGTACAGAATTTCAATCGAAA [XGTACX_site7542]”, the “gcPBM binding intensity (ln)” value came out at 7.52 ± 0.47.

Take “ATAAAAATGTATATATGTACATATATATATATATAT [XGTACX_site1505]”: the “gcPBM binding intensity (ln)” value was 9.64 ± 0.24.

For “ATTGTCTTTTAATAGTGTACTTATTTTAAATATTGC [XGTACX_site8517]”, the “gcPBM binding intensity (ln)” value was 8.2 ± 0.37.

As to TTTCTAATATATAAAGTGCAATACCATTCAGAGTTA, the “gcPBM binding intensity (ln)” value turned out to be 10.4 ± 0.51.

As for “AAGAAAATAAAATAAAATAAAATAAAATAAAAATAT [TGCATGCA_negctrl_site493]”, the “gcPBM binding intensity (ln)” value was 7.7 ± 0.57.

Consider TATAATTTATAAGTAGTGCATTTCTTTTCATTTTTA, for which the “gcPBM binding intensity (ln)” value worked out at 10.3 ± 0.3.

In the case of “TTTTATAGAGTGTATACATGCAATACCACATAAAAT [TGCATGCA_site476]”, the “gcPBM binding intensity (ln)” value came out at 8.07 ± 0.66.

Regarding “ATATGGAAGAATTAAAGTACTTAAAAAAATGTCAGT [XGTACX_site6837]”, the “gcPBM binding intensity (ln)” value worked out at 8.34 ± 0.64.

Turning to “TTATTATATATAAGTAGTACAAACAATTAAGAGATA [XGTACX_site4009]”, the “gcPBM binding intensity (ln)” value worked out at 8.31 ± 0.092.

As to “TGATGATATAAAAACACACACATATAACATAATACT [CACACA_site6687]”, the “gcPBM binding intensity (ln)” value came to 7.83 ± 0.67.

Consider “TTTCTTTCTATTGTTATATTTATAATAATTATAATT [XGTACX_negctrl_site215]”, for which the “gcPBM binding intensity (ln)” value turned out to be 7.54 ± 0.59.

Turning to “TATAAAATTACATTTTGTCATTTATTTTTTCCCACT [TGCATGCA_negctrl_site110]”, the “gcPBM binding intensity (ln)” value was 7.5 ± 0.28.

Turning to “TGTTTAAGTGTTTTTAGTACTTATAAAAATATTATC [XGTACX_site7379]”, the “gcPBM binding intensity (ln)” value was found to be 7.8 ± 0.28.

“ATATTATCCCTATTTGCACACAAGAGTAATTTTTTA [CACACA_site3908]”: the “gcPBM binding intensity (ln)” value came out at 9.805 ± 0.049.

As to “CCTATAAAACCATATACACACATATATATAAAAAAA [CACACA_site4013]”, the “gcPBM binding intensity (ln)” value came out at 7.74 ± 0.44.

For “TGTTTCTAAAAATTTACACACAAAATATTTCTACAT [CACACA_site4098]”, the “gcPBM binding intensity (ln)” value stood at 7.62 ± 0.56.

On to “TTATACGATAATATGACACACAATACAAAAATGTAA [CACACA_site1918]”, for which the “gcPBM binding intensity (ln)” value stood at 7.78 ± 0.42.

On to “AAATAAAATATTACATGTACATGTTCATAAAAAAAA [XGTACX_site1067]”, for which the “gcPBM binding intensity (ln)” value came to 7.71 ± 0.42.

For “ATAAATTAATGGAGAAATCTTATGAATTTATTTTAA [CACACA_negctrl_site1068]”, the “gcPBM binding intensity (ln)” value was 7.13 ± 0.67.

With “TATTGTAGTCATGCACGTACAAAAGGAAAGTTAAAA [XGTACX_site4446]”, the “gcPBM binding intensity (ln)” value amounted to 10 ± 0.73.

With “AATATATACATATATACACACACATATATTATATAT [CACACA_site7980]”, the “gcPBM binding intensity (ln)” value is 7.83 ± 0.44.

Regarding “TAAATATAAGTGTACATACACACTTTACAATCTCAT [CACACA_site3006]”, the “gcPBM binding intensity (ln)” value turned out to be 7.88 ± 0.2.

For “AATAAAAAGGAACACACACACACACCGATATATATA [CACACA_site5895]”, the “gcPBM binding intensity (ln)” value turned out to be 8.27 ± 0.73.

Consider “TACATACACAGACACACACACATATATATATATATA [CACACA_site3557]”, for which the “gcPBM binding intensity (ln)” value worked out at 9.34 ± 0.73.

“AAAGAAGAAAAATATAGTACAGGGCACATGTCCTGT [XGTACX_site6293]”: the “gcPBM binding intensity (ln)” value came out at 7.76 ± 0.74.

For “AAAAAAAAAAAAATTGCATGTAAATGAAATAATAAA [TGCATGCA_site116]”, the “gcPBM binding intensity (ln)” value was 7.5 ± 0.47.

Regarding “TTATTTTTATATTTCACACACATATACTTTTACATA [CACACA_site4097]”, the “gcPBM binding intensity (ln)” value is 7.96 ± 0.49.

“ATTTAAATTTAAAAAACACACATAATATGATATATA [CACACA_site1973]”: the “gcPBM binding intensity (ln)” value came to 7.6 ± 0.37.

In the case of “CAATTTTACTCATAAACACACATATATATGTTATTA [CACACA_site3152]”, the “gcPBM binding intensity (ln)” value is 7.66 ± 0.53.

As to “ATATGTGTTAAAAATGCACACAAAAAAATATACATA [CACACA_site7988]”, the “gcPBM binding intensity (ln)” value came to 8.635 ± 0.078.

As for “CTTATTTTATTCGAATGTACATAATTGTTAGACATT [XGTACX_site8583]”, the “gcPBM binding intensity (ln)” value was 7.77 ± 0.42.

In the case of “TTTTACAAATGTTTTACACACACATAATTGTATCAA [CACACA_site4166]”, the “gcPBM binding intensity (ln)” value was determined as 7.82 ± 0.61.

With “AAAAAAAGGATGTACGTATCATAATTTTATTTTATA [CACACA_negctrl_site1543]”, the “gcPBM binding intensity (ln)” value turned out to be 7.78 ± 0.17.

Consider “ATGGTTTAATTATATACACACTCGAAAATAACGACA [CACACA_site3258]”, for which the “gcPBM binding intensity (ln)” value worked out at 7.84 ± 0.52.

“TGATATTATATTGTGATGCACTTTAAAAATATAAAG [GTGCAC_site9509]”: the “gcPBM binding intensity (ln)” value is 9.12 ± 0.17.

For the sequence “CTTAAGTAAAATTAAAGTACATGGACAAAAAATATA [XGTACX_site7900]”, the “gcPBM binding intensity (ln)” value was determined as 8.1 ± 0.31.

For “TATCTCATGCGCACAAAAATATATGCAAAGAGTATA [TGCATGCA_negctrl_site201]”, the “gcPBM binding intensity (ln)” value was 9.02 ± 0.54.

As to “AATAATAACAAATGAACACACATATAGATGAGCAAA [CACACA_site7076]”, the “gcPBM binding intensity (ln)” value was found to be 7.59 ± 0.59.
